# Data published in the supplement of paper PMC4967469.
# By IC50 is meant the dose at which the fit gives 50% viability; a fit beyond the top or the lowest dose is shown as a bound at that dose. For AUC the same curve is integrated over the 256-fold range of doses and scaled to a fraction; it is 1 without any effect and falls as sensitivity rises. A top dose marked as inferred was derived from the fitted curves, not read from the paper.
# Compound: CCn1cc(-c2ccnc3[nH]c(-c4cccc(CN(C)C)c4)cc23)c(-c2ccc(NC(=O)N(C)C)cc2)n1 [GSK1070916]
# Assay: Viability of human cancer cell lines after 72 h of drug (GDSC screen)
# Settings: top dose inferred
# Experimental: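 Human cancer cell lines in 384-well plates, medium with 10% serum, drug for 72 h over a 256-fold dose range (nine 2-fold or five 4-fold steps up to the top dose). Adherent lines were fixed and stained with the nucleic acid dye Syto60, suspension lines read with resazurin; signal relative to control wells, capped at 0 and 100%. One two-parameter sigmoid per drug and line, fitted in a mixed model over all curves with the slope shared within a line.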
Cell Line,AUC,IC50 [nM]
"BFTC-905 (bladder, adherent, top dose 2.56 µM)",0.934,> 2560
"HuP-T4 (pancreas, adherent, top dose 2.56 µM)",0.877,> 2560
"BT-474 (breast, adherent, top dose 2.56 µM)",0.971,> 2560
"ATN-1 (T-cell lymphoblastic leukaemia, suspension, top dose 2.56 µM)",0.475,137
"Ramos-2G6-4C10 (Burkitt lymphoma, suspension, top dose 2.56 µM)",0.873,1860
"T98G (glioma, adherent, top dose 2.56 µM)",0.973,> 2560
"KU-19-19 (bladder, adherent, top dose 2.56 µM)",0.966,> 2560
"Daoy (medulloblastoma, adherent, top dose 2.56 µM)",0.888,2420
"DOV13 (ovary, adherent, top dose 2.56 µM)",0.979,> 2560
"SNU-423 (liver, adherent, top dose 2.56 µM)",0.863,> 2560
"RPMI-6666 (Hodgkin lymphoma, suspension, top dose 2.56 µM)",0.763,1100
"CAKI-1 (kidney, adherent, top dose 2.56 µM)",0.911,> 2560
"EVSA-T (breast, adherent, top dose 2.56 µM)",0.991,> 2560
"LB996-RCC (kidney, adherent, top dose 2.56 µM)",0.983,> 2560
"JEG-3 (urogenital system, adherent, top dose 2.56 µM)",0.991,> 2560
"LN-405 (glioma, adherent, top dose 2.56 µM)",0.978,> 2560
"H2818 (mesothelioma, adherent, top dose 2.56 µM)",0.969,> 2560
"NCI-H1623 (lung adenocarcinoma, adherent, top dose 2.56 µM)",0.985,> 2560
"REH (B-cell leukaemia, suspension, top dose 2.56 µM)",0.097,< 10
"KMOE-2 (acute myeloid leukaemia, suspension, top dose 2.56 µM)",0.851,1650

Cell Line,AUC,IC50 [nM]
"NCI-H1755 (lung adenocarcinoma, adherent, top dose 2.56 µM)",0.853,2520
"DMS-53 (small cell lung carcinoma, adherent, top dose 2.56 µM)",0.988,> 2560
"EW-3 (Ewing sarcoma, adherent, top dose 2.56 µM)",0.889,> 2560
"NCI-H524 (small cell lung carcinoma, suspension, top dose 2.56 µM)",0.057,< 10
"COR-L23 (large cell lung carcinoma, adherent, top dose 2.56 µM)",0.882,> 2560
"CAL-148 (breast, suspension, top dose 2.56 µM)",0.984,> 2560
"Farage (B-cell lymphoma, suspension, top dose 2.56 µM)",0.943,> 2560
"NK-92MI (lymphoid neoplasm, suspension, top dose 2.56 µM)",0.914,> 2560
"NCI-H596 (lung adenocarcinoma, adherent, top dose 2.56 µM)",0.924,> 2560
"DMS-79 (small cell lung carcinoma, suspension, top dose 2.56 µM)",0.959,> 2560
"HCC-33 (small cell lung carcinoma, adherent, top dose 2.56 µM)",0.818,1460
"IST-MES1 (mesothelioma, adherent, top dose 2.56 µM)",0.974,> 2560
"HCC1954 (breast, adherent, top dose 2.56 µM)",0.957,> 2560
"NCI-H226 (lung squamous cell carcinoma, adherent, top dose 2.56 µM)",0.937,> 2560
"C-33-A (cervix, adherent, top dose 2.56 µM)",0.949,> 2560
"MG-63 (osteosarcoma, adherent, top dose 2.56 µM)",0.984,> 2560
"H9 (lymphoid neoplasm, suspension, top dose 2.56 µM)",0.957,> 2560
"MDA-MB-453 (breast, adherent, top dose 2.56 µM)",0.973,> 2560
"AMO-1 (haematopoietic neoplasm, suspension, top dose 2.56 µM)",0.94,> 2560
